# In PubChem BioAssay (Tox21):
# Several values for one entry are separate records, joined by “and”; a condition that tells them apart may be missing. Equal values may be shown once. Inconclusive results, whose numbers are uncertain, are shown with a selection of clear calls. For some assays here: Potencies beside an inconclusive call are fits to weak or partial responses and may not hold up. Some compounds were tested as several samples or in several runs, with calls that do not always agree. Activity calls are given as the source filed them. Unless noted, calls come from the whole dose curve; as a rule, active = well fitted curve in the direction sought with a large enough effect in the repeat runs; inconclusive = weak or mixed curves; inactive = no such curve, though single readings can be large; an effect the other way counts as inactive or inconclusive.
# Tests used:
# [1] = qHTS RealTime-Glo MT Cell Viability Assay in HepG2 cells - 16 hour (AID 1224885); note: nearly all actives have a fitted effect of over 50% in size
# Summary of the method: (§1)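 Luminescence read-out: viable HepG2 cells reduce a prosubstrate to a NanoLuc substrate, giving a signal proportional to live cell number. Reads taken at 0, 8, 16, 24, 32 and 40 h of compound exposure at 37 C.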
# [2] = qHTS RealTime-Glo MT Cell Viability Assay in HEK293 cells - 8 hour (AID 1224887); note: nearly all actives have a fitted effect of over 50% in size
# Summary of the method: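 Luminescence readout at each listed time point; HEK293, 600 cells/well, RealTime-Glo MT reagent added with cells; compounds pinned (23 nL in DMSO) after 5 h at 37 C; continuous culture at 37 C.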
# [3] = qHTS RealTime-Glo MT Cell Viability Assay in HepG2 cells - 0 hour (AID 1224889); note: nearly all actives have a fitted effect of over 50% in size
# Summary of the method: as §1
# [4] = A CellTox Green Cytotoxicity Assay to monitor cytotoxicity in HepG2 cells - 8 hour (AID 1224890); note: nearly all actives have a fitted effect of over 45% in size
# Summary of the method: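 HepG2, 600 cells/well premixed w/ CellTox Green; 5 h settle, 37 C/5% CO2; pintool cpd add (DMSO); 37 C, 40 h; fluorescence read at 0, 8, 16, 24, 32, 40 h.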
# [5] = qHTS assay to identify small molecule antagonists of the estrogen receptor alpha (ER-alpha) signaling pathway using the BG1 cell line in the presence of 0.1 nM 17-beta-estradiol - cell viability counter screen (AID 1259241); note: nearly all actives have a fitted effect of over 40% in size
# Summary of the method: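 Following 5 days in phenol red-free medium with charcoal-stripped serum, VM7Luc4E2 cells received test compounds alongside 0.1 nM 17beta-estradiol (final) at 37C for 22 hr. Live cells were then quantified via protease-substrate fluorescence.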
# [6] = qHTS assay to identify small molecule HDAC inhibitors (AID 1259364);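 note: wild-type HCT-116 cells with endogenous class I/II HDAC activity; nearly all actives have a fitted effect of over 45% in size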
# Summary of the method: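 HCT-116 (wild type), 1,500 cells/well, overnight; compound 2 hr 37C 5% CO2; HDAC-Glo I/II reagent 30 min RT; luminescence readout.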
# [7] = qHTS assay to identify small molecule HDAC inhibitors - cell viability counter screen (AID 1259365); note: nearly all actives have a fitted effect of over 50% in size
# Summary of the method: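 HCT-116 wild-type, overnight attachment; 2hr drug exposure, 37C; CellTiter-Glo luminescent ATP readout after 30min RT.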
# [8] = qHTS assay to identify small molecule antagonists of the sonic hedgehog signaling (Shh) pathway - cell viability counter screen (AID 1259367); note: nearly all actives have a fitted effect of over 55% in size
# Summary of the method: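 Conditioned medium drove Shh signaling in 3T3 Gli1-Luc cells exposed to compounds at 37C and 5% CO2. Viability was determined from CellTiter-Fluor fluorescence, with reagent incubated 1 hr after 23 hr of treatment.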
# [9] = target: Estrogen receptor beta (Homo sapiens) (UniProt Q92731); assay: qHTS assay to identify small molecule agonists of the estrogen receptor beta (ER-beta) signaling pathway (AID 1259377; active = well fitted activation curve with a large enough effect in the signal ratio in the repeat runs, not every such curve was filed as active; inconclusive = weak or mixed curves, or effect the other way; the % refers to the signal ratio); conditions: ER-beta-UAS-bla HEK293T, beta-lactamase FRET ratio, 16 h; series mostly up to 92.4 µM
# Chain of UniProt Q92731 (Q92731 whole entry, looked up): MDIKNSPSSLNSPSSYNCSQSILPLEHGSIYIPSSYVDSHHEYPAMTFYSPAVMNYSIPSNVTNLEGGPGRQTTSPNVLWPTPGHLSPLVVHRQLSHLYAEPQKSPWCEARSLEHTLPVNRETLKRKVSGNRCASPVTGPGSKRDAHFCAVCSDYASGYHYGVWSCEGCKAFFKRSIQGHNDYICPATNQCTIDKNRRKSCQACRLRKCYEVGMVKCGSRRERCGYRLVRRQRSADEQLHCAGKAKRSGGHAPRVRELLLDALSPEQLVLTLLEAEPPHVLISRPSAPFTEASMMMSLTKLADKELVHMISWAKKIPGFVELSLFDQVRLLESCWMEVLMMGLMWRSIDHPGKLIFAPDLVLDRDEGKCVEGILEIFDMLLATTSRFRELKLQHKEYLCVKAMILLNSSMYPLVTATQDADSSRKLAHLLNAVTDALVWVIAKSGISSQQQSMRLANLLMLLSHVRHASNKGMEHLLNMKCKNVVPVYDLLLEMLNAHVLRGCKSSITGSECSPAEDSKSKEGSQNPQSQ
# Summary of the method: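 qHTS in ER-beta-UAS-bla HEK293T cells: 6 hr settling, then 16 hr compound at 37C, then LiveBLAzer substrate 2 h at RT before fluorescence reading.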
# [10] = target: Estrogen receptor beta (Homo sapiens) (UniProt Q92731); assay: qHTS assay to identify small molecule antagonists of the estrogen receptor beta (ER-beta) signaling pathway (AID 1259378; active = well fitted inhibition curve with a large enough effect in the signal ratio in the repeat runs, not every such curve was filed as active; inconclusive = weak or mixed curves, or effect the other way; inactive = no such curve, though single readings can be large or run the other way; the % refers to the signal ratio); conditions: ER-beta-UAS-bla HEK293T, beta-lactamase FRET ratio, 16 h; series mostly up to 92.4 µM
# Summary of the method: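 ER-beta-UAS-bla HEK293T (GripTite) cells in 2% charcoal-stripped FBS medium were preincubated 6 hr at 37C, dosed with compound, then stimulated with 1 nM E2 (final) for 16 hr; beta-lactamase reporter read by B/G FRET fluorescence after 2 hr substrate loading.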
# [11] = qHTS assay to identify small molecule agonists of the androgen receptor (AR) signaling pathway in the presence of an antagonist - cell viability counter screen (AID 1259379); note: nearly all actives have a fitted effect of over 25% in size
# Summary of the method: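 Viability counter screen: CellTiter-Fluor fluorescence, measured in the same wells as the luciferase read-out. MDA-kb2 cells, 3,000/well, with nilutamide at 3.0uM final and compounds at 15 concentrations, 16 hr at 37C, 0% CO2.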
# [12] = qHTS RealTime-Glo MT Cell Viability Assay in HEK293 cells - 24 hour (AID 1224886); note: nearly all actives have a fitted effect of over 50% in size
# Summary of the method: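 Nonlytic real-time viability readout: viable cells convert prosubstrate to NanoLuc substrate, giving luminescence proportional to live cell number. HEK293, 600 cells/well, compound added after 5 h, continuous culture at 37 C.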
# [13] = qHTS assay to identify small molecule agonists of the sonic hedgehog signaling (Shh) pathway (AID 1259368; calls by dose curve; note: nearly all actives have a fitted effect of over 15% in size)
# Summary of the method: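 Read-out: firefly luciferase luminescence from a Gli1 response element reporter stably integrated in NIH/3T3-derived 3T3Gli1-Luc cells, measured 30 min at room temperature after reagent addition. Compound exposure lasted 24 hr at 37 C, 5% CO2.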
# [14] = qHTS assay to identify small molecule agonists of the sonic hedgehog signaling (Shh) pathway - cell viability counter screen (AID 1259366); note: nearly all actives have a fitted effect of over 50% in size
# Summary of the method: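 Compounds in DMSO were pin-transferred onto 3T3 Gli1-Luc cells that had settled 4hr; plates then stood 24hr at 37C and 5% CO2. One hour before the end, CellTiter-Fluor was added and fluorescence recorded.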
# [15] = qHTS assay to identify small molecule antagonists of the sonic hedgehog signaling (Shh) pathway (AID 1259369; calls by dose curve; note: nearly all actives have a fitted effect of over 45% in size)
# Summary of the method: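 Luminescence readout: firefly Luc under Gli1 response element in 3T3Gli1-Luc cells (NIH/3T3 clone). Antagonist mode, stimulation by conditioned medium; compound exposure 24hr at 37 C, 5% CO2.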
# [16] = qHTS assay to identify small molecule antagonists of the androgen receptor (AR) signaling pathway using the MDA cell line in the presence of 0.5 nM R1881 - cell viability counter screen (AID 1259242); note: nearly all actives have a fitted effect of over 45% in size
# Summary of the method: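 Live-cell protease fluorescence, CellTiter-Fluor, 30 min at 37C. Cells: MDA-kb2, 3,000/well, preincubated 5 hr. Compounds plus 0.5 nM R1881 final, 16 hr, 37C, 0% CO2.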
# [17] = target: Estrogen receptor (Homo sapiens) (UniProt P03372); assay: qHTS assay to identify small molecule antagonists of the estrogen receptor alpha (ER-alpha) signaling pathway using the BG1 cell line in the presence of 0.1 nM 17-beta-estradiol (AID 1259244); note: nearly all actives have a fitted effect of over 50% in size
# Chain of UniProt P03372 (P03372 whole entry, looked up): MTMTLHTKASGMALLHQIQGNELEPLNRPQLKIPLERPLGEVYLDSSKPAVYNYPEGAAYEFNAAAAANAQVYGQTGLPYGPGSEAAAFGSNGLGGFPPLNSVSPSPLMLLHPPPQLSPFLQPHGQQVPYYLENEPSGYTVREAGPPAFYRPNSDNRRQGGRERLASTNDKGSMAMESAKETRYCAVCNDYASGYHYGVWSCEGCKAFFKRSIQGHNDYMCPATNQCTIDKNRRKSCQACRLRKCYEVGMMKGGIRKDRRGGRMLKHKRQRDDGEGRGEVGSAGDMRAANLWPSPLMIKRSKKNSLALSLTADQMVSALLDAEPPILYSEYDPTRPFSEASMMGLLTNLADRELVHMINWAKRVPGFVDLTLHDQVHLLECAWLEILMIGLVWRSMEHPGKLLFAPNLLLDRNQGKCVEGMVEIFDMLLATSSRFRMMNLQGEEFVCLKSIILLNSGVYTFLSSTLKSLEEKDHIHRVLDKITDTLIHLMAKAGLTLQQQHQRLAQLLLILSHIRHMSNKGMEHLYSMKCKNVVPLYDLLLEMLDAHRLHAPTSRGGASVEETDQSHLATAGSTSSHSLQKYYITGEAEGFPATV
# Summary of the method: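 Luminescence after ONE-Glo (30 min, room temperature) measured ERE-luciferase activity in VM7Luc4E2 cells treated 22 h with compound and 0.1 nM final 17beta-estradiol as stimulator.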
# [18] = qHTS assay to identify small molecule phospholipidosis (PLD) inducers (AID 1259344; active = well fitted curve in the direction sought with a large enough effect; inconclusive = small, poorly fitted or top-dose-only effect, or another doubt; inactive = no such curve, though single readings can be large; an effect the other way counts as inactive or inconclusive)
# Summary of the method: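 After 4 h attachment on collagen I, HepG2 cells were dosed with compound alongside LipidTOX Red, kept 24 h at 37 C, fixed, and imaged for lamellar phospholipid pits.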
# Potency is the fitted concentration of half-maximal effect; tags give direction and shape of the fitted curve or compound fluorescence and quenching.
smiles,measurement,setting,value
CC(=O)[O][Pb]([c]1ccccc1)([c]1ccccc1)[c]1ccccc1,Potency,[1],active: 1.55 µM
same,Potency,[2],active: 3.47 µM
same,Potency,[3],"inconclusive: 49 µM [cytotoxic, partial curve]"
same,Potency,[4],active: 3.89 µM
same,Potency,[5],active: 21.7 µM
same,Potency,[6],"inconclusive: 24.3 µM [inhibitor, partial curve]"
same,Potency,[7],active: 61.1 µM
same,Potency,[8],active: 0.77 µM
same,Potency,[9],"inconclusive: 6.11 µM [rising, full curve]"
same,Potency,[10],active: 969 nM
same,Potency,[11],active: 7.7 µM
[Cd+2].[Cl-].[Cl-],Potency,[1],inconclusive: 55.4 µM [cytotoxic]
same,Potency,[12],"inconclusive: 98.5 nM [rising, full curve] and inconclusive: 110 nM [rising, full curve]"
same,Potency,[5],"inconclusive: 155 µM [cytotoxic, single point]"
same,Potency,[13],"inconclusive: 0.549 µM [activator, single point]"
c1ccc(Nc2ccc3ccccc3c2)cc1,Potency,[1],"inconclusive: 54.6 µM [cytotoxic, partial curve, poor fit] and inconclusive: 49 µM [cytotoxic, single point]"
same,Potency,[12],"inconclusive: 48.7 µM [cytotoxic, partial curve] and inconclusive: 43.6 µM [cytotoxic, partial curve]"
same,Potency,[4],"inconclusive: 54.9 µM [activator, single point]"
same,Potency,[6],"inconclusive: 27.1 µM [inhibitor, partial curve, poor fit] and inconclusive: 27.3 µM [inhibitor]"
same,Potency,[14],"inconclusive: 68.6 µM [cytotoxic, partial curve, poor fit]"
same,Potency,[15],inconclusive: 61.1 µM [inhibitor]
same,Potency,[10],active: 54.2 µM and active: 48.6 µM
C=C(C)[C@H]1Cc2c(ccc3c2O[C@@H]2COc4cc(OC)c(OC)cc4[C@@H]2C3=O)O1,Potency,[1],"active: 31.3 µM and active: 27.5 µM and inconclusive: 9.52 µM [cytotoxic, partial curve]"
same,Potency,[12],active: 62.5 nM and active: 12.3 nM and active: 47.7 nM
same,Potency,[5],"inconclusive: 156 nM [cytotoxic, full curve, poor fit] and inconclusive: 168 nM [cytotoxic, full curve]"
same,Potency,[8],"inconclusive: 11.9 µM [cytotoxic, partial curve]"
O=[N+]([O-])c1ccc(Nc2ccccc2)cc1,Potency,[1],"inconclusive: 43.6 µM [cytotoxic, partial curve, poor fit]"
same,Potency,[2],"inconclusive: 44 µM [cytotoxic, partial curve] and inconclusive: 19.5 µM [cytotoxic, partial curve]"
same,Potency,[5],"inconclusive: 24.5 µM [cytotoxic, partial curve] and inconclusive: 61.1 µM [cytotoxic, partial curve, poor fit]"
same,Potency,[16],"inconclusive: 48.9 µM [cytotoxic, partial curve]"
same,Potency,[17],"inconclusive: 69.1 µM [inhibitor, single point] and inconclusive: 68.6 µM [inhibitor, single point]"
same,Potency,[6],"inconclusive: 48.6 µM [inhibitor, partial curve, poor fit]"
same,Potency,[7],inactive
same,Potency,[8],"inconclusive: 61.1 µM [cytotoxic, partial curve]"
same,Potency,[15],inconclusive: 24.5 µM [inhibitor]
same,Potency,[10],"inconclusive: 38.8 µM [rising, partial curve] and inconclusive: 19.3 µM [rising, partial curve]"
COc1ccc(C(c2ccc(OC)cc2)C(Cl)(Cl)Cl)cc1,Potency,[1],inconclusive: 43.4 µM [cytotoxic]
same,Potency,[2],inconclusive: 46 µM [cytotoxic]
same,Potency,[17],inconclusive: 68.2 µM [inhibitor]
same,Potency,[18],active: 31.6 µM
same,Potency,[6],"inconclusive: 60.8 µM [inhibitor, partial curve]"
same,Potency,[9],"inconclusive: 76.5 µM [rising, partial curve, poor fit]"
same,Potency,[11],"inconclusive: 76.5 µM [cytotoxic, partial curve, poor fit]"
CC(C)CC(C)(c1ccc(O)cc1)c1ccc(O)cc1,Potency,[1],"inconclusive: 55.1 µM [cytotoxic, partial curve, poor fit] and inconclusive: 43.6 µM [cytotoxic, partial curve]"
same,Potency,[12],"active: 43.8 µM and inconclusive: 49 µM [cytotoxic, single point]"
same,Potency,[3],"inconclusive: 54.9 µM [cytotoxic, partial curve, poor fit]"
same,Potency,[16],"inconclusive: 68.7 µM [cytotoxic, partial curve, poor fit]"
same,Potency,[14],"inconclusive: 27.3 µM [cytotoxic, single point]"
same,Potency,[8],"inconclusive: 68.6 µM [cytotoxic, single point]"
same,Potency,[15],"active: 27.4 µM and inconclusive: 77 µM [inhibitor, partial curve, poor fit]"
